Reference: PubChem BioAssay AID624296 (National Center for Advancing Translational Sciences (NCATS), 2012)
Hit rate of the full screen: of about 350,000 compounds, about 9,900 (2.8%) were called active. Inconclusive results, whose numbers are uncertain, are shown with a selection of clear calls. The call rests on the fitted dose curve; in most records, active means well fitted activation curve with a large enough effect; inconclusive means small, poorly fitted or top-dose-only effect; inactive means no such curve, though single readings can be large or run the other way. Potencies of inconclusive entries are left out as doubtful fits.

Assay: A quantitative high throughput screen for small molecules that induce DNA re-replication in MCF 10a normal breast cells. Further: nearly all actives have a fitted effect of over 50% in size. On activity, positive = re-replication: % of control where 0% means no effect.
Conditions: MCF 10A DNA re-replication, Hoechst nuclear intensity, 48 h; activity, positive = re-replication: at 46.1 µM (top of the series)
Potency means the concentration at half of the fitted maximal effect; tags describe the fitted curve by direction and shape.

Row | Compound | activity, positive = re-replication | Potency
1 | CCC(Sc1nc2cc3c(cc2c(=O)n1Cc1ccco1)OCO3)C(=O)Nc1ccccc1OC (configuration not stated) | inactive: -0.67% | 
2 | CC1(C)Cc2c(cnn2-c2ccccc2)-c2c1c1ccccc1n2CC(O)CCl (configuration not stated) |  | inconclusive [activator, single point]
3 | COc1ccc(CCNC(=O)C2CCN(C(=O)c3ccc(F)cc3)CC2)cc1 |  | active: 0.651 µM
4 | CC1(C)N=C(N)N=C(N)N1c1ccc(OCCCOc2ccccc2)c(Cl)c1 |  | inconclusive [activator, full curve, poor fit]
5 | CC(C)CN(C(=O)CN(C)CC(=O)Nc1ccc(Cl)c(C(F)(F)F)c1)c1c(N)n(CC(C)C)c(=O)[nH]c1=O |  | inconclusive [activator, single point]
6 | CCNC(=S)N=Nc1c(O)n(Cc2ccc(Cl)cc2)c2ccccc12 |  | inconclusive [activator, partial curve, poor fit]
7 | Cc1oc(CC(C)C)c(CN2CCCC2)c1C(=O)O |  | inconclusive [activator, single point]
8 | Cc1ccc2oc(C(=O)N(C)Cc3ccc(C)o3)c(C)c2c1 |  | active: 23.1 µM
9 | COc1ccc(C(=O)Oc2cc(OC)cc(OC)c2C(C)=O)cc1 |  | inconclusive [activator, full curve, poor fit]
10 | COCc1c(C#N)c(NCCc2ccccc2)nc(C)c1[N+](=O)[O-] | inactive: 22.3% | 
11 | COc1ccc(C2CC(O)(c3ccccc3)Oc3cc(OC)cc(OC)c32)cc1 (configuration not stated) |  | active: 20.6 µM
12 | CC(C)n1c(NCc2ccc(Cl)cc2)nc2ccccc21 |  | inconclusive [activator, partial curve, poor fit]
13 | O=S(=O)(Nc1ccc2c(c1)OCCO2)c1ccc2oc3ccccc3c2c1 |  | inconclusive [activator, single point]
14 | O=C(C1COc2ccccc2O1)N1CCOCC1 (configuration not stated) |  | inconclusive [activator, partial curve, poor fit]
15 | CN(CC(=O)Nc1cccc(F)c1)C(=O)c1cccc(S(=O)(=O)N2CC3(C)CC2CC(C)(C)C3)c1 (configuration not stated) |  | inconclusive [activator, single point]
16 | C=CCNCCCOc1ccc(C)cc1Br | inactive: 2.42% | 
17 | CC1CCN(c2ccc(C(=O)NCCc3ccccc3)cn2)CC1 | inactive: 10.7% | 
18 | Cc1cccn2c(=O)c3cc(C(=O)NCC4CCCO4)c(=N)n(CC4CCCO4)c3nc12 (configuration not stated) |  | active: 4.61 µM
19 | COc1ccc(-c2nnc(SCc3ccccn3)n2C)cc1 |  | inconclusive [activator, full curve, poor fit]
20 | O=C(COc1ccc2ccccc2c1)NNC(=O)C(=O)Nc1ccccc1 |  | inconclusive [activator, full curve, poor fit]
21 | CCC(Oc1ccccc1C)C(=O)N1CCCN(C)CC1 (configuration not stated) | inactive: 0.387% | 
22 | COc1cc(-c2nnc(SCc3ccccc3Cl)o2)cc(OC)c1OC |  | active: 20.6 µM
23 | CN1C(=O)C2(c3ccccc31)N(C)CC(c1ccccc1)C21SC(=S)N(Cc2ccco2)C1=O (configuration not stated) |  | inconclusive [activator, full curve, poor fit]

Row | Compound | activity, positive = re-replication | Potency
24 | COc1ccc(-c2nc(-n3c(C)c(C(C)=O)c(C(C)=O)c3C)sc2C)cc1OC |  | inconclusive [activator, partial curve, poor fit]
25 | CC(C)NC(=O)Nc1ccc2c(c1)C(=O)N([C@H](C)CO)C[C@H](C)[C@@H](CN(C)S(=O)(=O)c1ccc(F)cc1)O2 | inactive: -4.27% | 
26 | CC(NC(=O)CC1CCCCC1)c1ccccc1 (configuration not stated) |  | inconclusive [activator, partial curve, poor fit]
27 | CC(=O)Nc1ccc(C2=CC(=O)C[C@H](c3ccc4c(c3)OCO4)C2)cc1 |  | inconclusive [activator, single point]
28 | Cc1nn(-c2ccccc2)c(C)c1C(=O)OCC(=O)Nc1ccc2c(c1)OCO2 |  | inconclusive [activator, partial curve]
29 | Cc1nnsc1C(=O)N1CCC(CO)(Cc2ccccc2Cl)CC1 |  | inconclusive [activator, partial curve, poor fit]
30 | O=C(NC1CC2CCCC(C1)N2C(=S)NCCc1ccccc1)C1CC1 (configuration not stated) | inactive: -6.59% | 
31 | O=C(CCNc1ccc(F)cc1)c1cccc([N+](=O)[O-])c1 |  | inconclusive [activator, single point]
32 | CCN(CC)C1CCN(C(=O)c2cc(COc3ccccc3SC)on2)C1 (configuration not stated) |  | inconclusive [activator, single point]
33 | Nc1nc2cc(S(=O)(=O)NC3=NCCCCC3)ccc2s1 |  | inconclusive [activator, partial curve, poor fit]
34 | CCOC(=O)c1ccoc1CSCc1ccc(C(=O)OC)o1 |  | inconclusive [activator, single point]
35 | O=C(c1ccccc1)N1CN2CN(C(=O)c3ccccc3)CC([N+](=O)[O-])(C2)C1 |  | inconclusive [activator, full curve, poor fit]
36 | C=CCn1c(C)cc(C(=O)COc2ccc(N(C)S(=O)(=O)c3ccc(NC(C)=O)cc3)cc2)c1C |  | inconclusive [activator, single point]
37 | CC(C)NC(=O)CC(=O)NN=C1CCCCC1 | inactive: -0.697% | 
38 | O=C(Nc1cccc(-n2cnnn2)c1)C1CCCN(Cc2cccc(C(F)(F)F)c2)C1 (configuration not stated) |  | inconclusive [activator, partial curve, poor fit]
39 | COc1ccccc1-n1cnc2cc(NCc3ccco3)ccc21 |  | active: 2.06 µM
40 | O=C(NCCc1ccc(C(F)(F)F)cc1)C1CCC(=O)N(CCc2cccc(F)c2)C1 (configuration not stated) |  | inconclusive [activator, single point]
41 | CCCCOc1cccc(C(=O)NC(=S)Nc2cccc(C(F)(F)F)c2)c1 | inactive: 24.4% | 
42 | CC1CCC(N2CC(=O)N(Cc3ccc4c(c3)OCO4)C(c3ccc(F)cc3)C2=O)CC1 (configuration not stated) |  | inconclusive [activator, single point]
43 | CC(C)Cn1c(=S)[nH]c2cc(C(=O)NCc3ccccc3F)ccc2c1=O |  | active: 14.6 µM
44 | CN1CCN(C(=S)c2ccc(Br)cc2)CC1 |  | inconclusive [activator, full curve, poor fit]
45 | Cc1ccc(CN2C(=O)N/C(=C/c3ccc(-c4ccc(C(=O)O)cc4)o3)C2=O)cc1 |  | active: 8.2 µM
46 | CCn1c(SCC(=O)N2c3ccccc3Sc3ccccc32)nc2c1c(=O)n(C)c(=O)n2C |  | inconclusive [activator, partial curve]

Row | Compound | activity, positive = re-replication | Potency
47 | CN(CCOCCOc1ccc2ccccc2c1)Cc1ccccc1 |  | inconclusive [activator, partial curve]
48 | Cc1ccc(C(=O)Nc2cccc(-c3ccc(N4CCOCC4)nn3)c2)cc1 |  | inconclusive [activator, single point]
49 | CN(CC(=O)Nc1ccc(F)cc1)C(=O)COC(=O)c1ccc(=O)n(Cc2ccccc2)n1 | inactive: 0.435% | 
50 | Cc1ccc(-c2nc3c4ccccc4ccn3c2CN2CCCCC2)cc1 |  | inconclusive [activator, single point]
51 | O=C(c1ccc(CS(=O)c2cccc(Cl)c2)o1)N1CCN(c2ccccn2)CC1 (configuration not stated) |  | inconclusive [activator, partial curve, poor fit]
52 | O=C(NCCc1ccc([N+](=O)[O-])cc1)c1ccccc1 | inactive: -5.41% | 
53 | Cc1cccc(NC(=O)CN2C(=O)S/C(=C\c3cccn3-c3cccc(C(=O)O)c3)C2=O)c1 |  | inconclusive [activator, single point]
54 | COc1cccc(-c2ccc(-c3noc(-c4ccccc4F)n3)c(OC)n2)c1 |  | inconclusive [activator, partial curve, poor fit]
55 | CCCN(CCC)CCCNC(=O)c1cc2c(=O)[nH]c3ccccc3c2s1 |  | inconclusive [activator, full curve]
56 | CSc1ccc(CN(C)C(C)C(=O)Nc2ccc(F)c(F)c2F)cc1 (configuration not stated) |  | inconclusive [activator, partial curve, poor fit]
57 | CC(C)=NOc1cc(NC(=O)CCl)cc([N+](=O)[O-])c1 |  | active: 6.51 µM
58 | COc1ccc(CN2CCCC(N3CCN(c4cccc(Cl)c4)CC3)C2)cc1OC (configuration not stated) | inactive: -0.591% | 
59 | O=S(=O)(CCSc1nc2ccccc2o1)c1nc2ccccc2s1 |  | inconclusive [activator, partial curve, poor fit]
60 | O=S(=O)(c1cccc(Cl)c1)N1CCC(c2nc3ccccc3[nH]2)CC1 | inactive: 8.18% | 
61 | COc1cc(C(C)=O)ccc1Oc1ncnc2c1cnn2-c1ccc(F)cc1 | inactive: -4.87% | 
62 | CCn1c(SCC(=O)Nc2cc(OC)ccc2OC)nnc1C1CCCCC1 |  | inconclusive [activator, single point]
63 | CC1(C)C(C=C(Cl)Cl)C1C(=O)N1CCN(c2ccccc2)CC1 (configuration not stated) |  | inconclusive [activator, single point]
64 | CCOc1ccc(OCCC(=O)OCC(=O)N2CCN(S(=O)(=O)c3ccc(Cl)cc3)CC2)cc1 |  | inconclusive [activator, single point]
65 | O=C(O)c1nn(-c2ccccc2)ccc1=O |  | inconclusive [activator, single point]
66 | CC1(CNC(=O)C(=O)NCC2(C)CO2)CO1 (configuration not stated) |  | inconclusive [activator, partial curve]
67 | CC1CCCN(Cc2nc3c(c(=O)n(C)c(=O)n3C)n2CCCc2ccccc2)C1 (configuration not stated) |  | inconclusive [activator, single point]
